From the supplement of paper PMC8728848
This is one part of the list.

Assays:
Test in all cases: glycan array binding signal (z-score within array); higher = stronger binding
Conditions in all cases: glycan notation: IUPAC condensed, linker removed
[1] = target: Gal6S(b1-4)Glc6S
Summary of the method: (§1)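 The binding signal is a Z-score computed within each array. Data were drawn from 3228 arrays in the Consortium for Functional Glycomics database, restricted to those with a known protein sequence. Scores were averaged over arrays of the same protein sequence at different concentrations or buffers, and over linkers, and negative values can be taken as non-binding.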

[2] = target: Gal6S(b1-4)GlcNAc
Summary of the method: as §1

[3] = target: Gal6S(b1-4)GlcNAc6S
Summary of the method: as §1

[4] = target: GalNAc(a1-3)Gal
Summary of the method: as §1

[5] = target: GalNAc(a1-3)GalNAc
Summary of the method: as §1

[6] = target: GalNAc(a1-3)GalNAc(b1-3)Gal(a1-4)Gal(b1-4)Glc
Summary of the method: as §1

[7] = target: GalNAc(a1-3)GalNAc(b1-3)Gal(a1-4)Gal(b1-4)GlcNAc
Summary of the method: as §1

[8] = target: GalNAc(b1-3)Gal
Summary of the method: as §1

[9] = target: GalNAc(b1-3)Gal(a1-4)Gal(b1-4)GlcNAc
Summary of the method: as §1

[10] = target: GalNAc(b1-3)Gal(a1-4)Gal(b1-4)GlcNAc(b1-3)Gal(b1-4)Glc
Summary of the method: as §1

[11] = target: GalNAc(b1-3)Gal(a1-6)Gal(b1-4)Glc
Summary of the method: as §1

[12] = target: GalNAc(b1-3)GalNAc
Summary of the method: as §1

[13] = target: GalNAc(b1-3)GlcNAc
Summary of the method: as §1

[14] = target: GalNAc(b1-4)Gal(b1-4)Glc
Summary of the method: as §1

[15] = target: GalNAc(b1-4)GlcNAc
Summary of the method: as §1

[16] = target: GalNAc(b1-4)GlcNAc(b1-2)Man
Summary of the method: as §1

[17] = target: GalNAc(b1-4)GlcNAc(b1-2)Man(a1-3)[GalNAc(b1-4)GlcNAc(b1-2)Man(a1-6)]Man(b1-4)GlcNAc(b1-4)GlcNAc
Summary of the method: as §1

[18] = target: GalNAc(b1-4)GlcNAc(b1-3)GalNAc(b1-4)GlcNAc
Summary of the method: as §1

[19] = target: GalNAc(b1-4)GlcNAc6S
Summary of the method: as §1

[20] = target: GalNAc(b1-6)GalNAc
Summary of the method: as §1

[21] = target: GalNAc3S(b1-4)GlcNAc
Summary of the method: as §1

[22] = target: GalNAc3S(b1-4)GlcNAc3S
Summary of the method: as §1

[23] = target: GalNAc3S(b1-4)[Fuc(a1-3)]GlcNAc
Summary of the method: as §1

[24] = target: GalNAc4S6S(b1-4)GlcNAc
Summary of the method: as §1

[25] = target: GalNAc6S(b1-4)GlcNAc
Summary of the method: as §1

[26] = target: Glc(a1-4)Glc
Summary of the method: as §1

[27] = target: Glc(a1-4)Glc(a1-4)Glc(a1-4)Glc
Summary of the method: as §1

[28] = target: Glc(a1-6)Glc(a1-6)Glc
Summary of the method: as §1

[29] = target: Glc(a1-6)Glc(a1-6)Glc(a1-6)Glc
Summary of the method: as §1

[30] = target: Glc(b1-4)Glc
Summary of the method: as §1

[31] = target: Glc(b1-6)Glc
Summary of the method: as §1

[32] = target: GlcA(b1-3)Gal
Summary of the method: as §1

[33] = target: GlcA(b1-3)GlcNAc
Summary of the method: as §1

[34] = target: GlcA(b1-6)Gal
Summary of the method: as §1

[35] = target: GlcA3S(b1-3)Gal(b1-4)GlcNAc(b1-2)Man
Summary of the method: as §1

[36] = target: GlcA3S(b1-3)Gal(b1-4)GlcNAc(b1-3)Gal(b1-4)Glc
Summary of the method: as §1

[37] = target: GlcNAc(a1-3)Gal(b1-4)GlcNAc
Summary of the method: as §1

B1: diCBM40 CPF071 (Clostridium perfringens) (protein)
chain: MAHHHHHHVGTGSNDDDDKSPDPMLSSLGEYKDINLESSNASNITYDLEKYKNLDEGTIVVRFNSKDSKIQSLLGISNSKTKNGYFNFYVTNSRVGFELRNQKNEGNTQNGTENLVHMYKDVALNDGDNTVALKIEKNKGYKLFLNGKMIKEVKDTNTKFLNNIENLDSAFIGKTNRYGQSNEYNFKGNIGFMNIYNEPLGDDYLLSKTGETKALNGSELGSGSGLSSLGEYKDINLESSNASNITYDLEKYKNLDEGTIVVRFNSKDSKIQSLLGISNSKTKNGYFNFYVTNSRVGFELRNQKNEGNTQNGTENLVHMYKDVALNDGDNTVALKIEKNKGYKLFLNGKMIKEVKDTNTKFLNNIENLDSAFIGKTNRYGQSNEYNFKGNIGFMNIYNEPLGDDYLLSKTGETK
With B1 the “glycan array binding signal (z-score)” value [1] was -0.229, the “glycan array binding signal (z-score)” value [2] was -0.279 and the “glycan array binding signal (z-score)” value [3] was -0.287. The “glycan array binding signal (z-score)” value [4] was -0.259, the “glycan array binding signal (z-score)” value [5] was -0.216 and the “glycan array binding signal (z-score)” value [6] was -0.324. For the same binder, the “glycan array binding signal (z-score)” value [7] was -0.334, the “glycan array binding signal (z-score)” value [8] was -0.227 and the “glycan array binding signal (z-score)” value [9] was -0.317. For the same binder, the “glycan array binding signal (z-score)” value [10] was -0.306, the “glycan array binding signal (z-score)” value [11] was -0.235 and the “glycan array binding signal (z-score)” value [12] was -0.314. For the same binder, the “glycan array binding signal (z-score)” value [13] was -0.339, the “glycan array binding signal (z-score)” value [14] was -0.314 and the “glycan array binding signal (z-score)” value [15] was -0.232. For the same binder, the “glycan array binding signal (z-score)” value [16] was -0.206, the “glycan array binding signal (z-score)” value [17] was -0.337 and the “glycan array binding signal (z-score)” value [18] was -0.173. The “glycan array binding signal (z-score)” value [19] was -0.227, the “glycan array binding signal (z-score)” value [20] was -0.244 and the “glycan array binding signal (z-score)” value [21] was -0.307. For the same binder, the “glycan array binding signal (z-score)” value [22] was -0.256, the “glycan array binding signal (z-score)” value [23] was -0.102 and the “glycan array binding signal (z-score)” value [24] was -0.325. The “glycan array binding signal (z-score)” value [25] was -0.29, the “glycan array binding signal (z-score)” value [26] was -0.311 and the “glycan array binding signal (z-score)” value [27] was -0.275. For the same binder, the “glycan array binding signal (z-score)” value [28] was -0.269, the “glycan array binding signal (z-score)” value [29] was -0.24 and the “glycan array binding signal (z-score)” value [30] was -0.347. For the same binder, the “glycan array binding signal (z-score)” value [31] was -0.32, the “glycan array binding signal (z-score)” value [32] was -0.313 and the “glycan array binding signal (z-score)” value [33] was -0.322. The “glycan array binding signal (z-score)” value [34] was -0.12, the “glycan array binding signal (z-score)” value [35] was -0.33 and the “glycan array binding signal (z-score)” value [36] was -0.304. The “glycan array binding signal (z-score)” value [37] was -0.342.
